The source of these data is PubChem BioAssay AID463173 (ICCB-Longwood Screening Facility, Harvard Medical School, 2010).

SMILES strings stand for the structures. The whole screen tested about 52,000 compounds, of which about 4,300 (8.3%) were called active. Cut-off read from the data, not from the text of the source: active = survival mostly below about 52% (no sharp cut-off); inactive = mostly above about 56%. The list shows a part of the results.

The assay has as its system DeltatarO mutant. The assay is described as follows: S. aureus survival, RN4220 and DeltatarO strains – OD600, teichoic acid synthesis inhibitors, primary screen (AID 463173). The conditions noted are these: S. aureus RN4220 wild type/DeltatarO growth, OD600, 18 h, hits give low values, screened at 18.75 µg/mL (by protocol).
In the case of `CCC1CN(C(=O)Nc2cccc3c2CCCC3)c2cc(C)ccc2O1` (configuration not stated), the survival is inactive: 49%.
The figure for `CCOC(=O)c1c(C)oc2nc(C)nc(NCCCN3CCN(c4cccc(C)c4)C(C)C3)c12` (configuration not stated) is inactive: 117%; for `Cc1ccccc1Cc1c(C)nc2nc(SCC(=O)NC(C)c3ccccc3)nn2c1C` (configuration not stated) it is active: 57%; for `CCCCNC(=O)C1CCN(Cc2nc(-c3ccc(OC)c(OC)c3)oc2C)CC1` it is inactive: 99%.
The figure for `O=C1NC(=O)C(Nc2ccccc2Cl)S1` (configuration not stated) is inactive: 78%; for `Cc1cccc(NC(=O)c2c(Br)sc3c2CCCC3)c1` it is active: 3%; for `O=C(NCc1ccc(Cl)cc1)C1CCCN(c2ncnc3onc(-c4ccc(F)cc4)c23)C1` (configuration not stated) it is inactive: 98%.
The figure for `COc1ccc(Nc2nnc(-c3ccc(C)c(S(=O)(=O)N4CCOCC4)c3)c3ccccc23)cc1` is inactive: 66%; for `COc1ccccc1N1CCN(C(=O)CSc2nc(-c3ccc(C(C)C)cc3)no2)CC1` it is inactive: 102%; for `O=C(CSc1nc2ccccc2o1)NN=C1CCCC1` it is inactive: 90%.
For the compound `O=C(COc1ccccc1F)Nc1nnc(S(=O)(=O)N2CCCCCC2)s1`, the survival is active: 51%.
On to `CCOc1cc(C2c3c(oc4ccc(F)cc4c3=O)C(=O)N2Cc2ccc(C)cc2)ccc1O` (configuration not stated), for which the survival was inactive: 169%.
The figure for `CCCCNC(=O)CSc1nc2n[nH]c(C)c2c(=N)n1-c1ccccc1CC` is inactive: 89%; for `COc1ccc(C2CC(=O)c3c([nH]c(C(=O)OCc4ccccc4)c3C)C2)cc1OC` (configuration not stated) it is inactive: 95%; for `CCN(C(=O)NCc1noc2ccccc12)c1cc(C)ccc1C` it is inactive: 55%.
The figure for `CCOC(=O)c1nc(Nc2cccc(C)c2)c2ccccc2n1` is inactive: 75%; for `CCOc1ccc(CNC(=O)CCn2cccn2)cc1OC` it is inactive: 73%.
The figure for `Cc1ccc2nc(/C(C#N)=C/c3ccc(-c4cccc(Cl)c4)o3)[nH]c2c1` is active: 6%; for `Cc1cc(C)c2[nH]c(=O)c(CN(C3CCCCC3)C(c3nnnn3Cc3ccco3)C(C)C)cc2c1` (configuration not stated) it is inactive: 107%.
Regarding `Cc1nc2nc(SCC(=O)NC(C)c3ccccc3)nn2c(C)c1Cc1c(F)cccc1Cl` (configuration not stated), the survival was inactive: 68%.
The figure for `CCOc1ccc(CN2C(=O)c3ccccc3Sc3ccc(C(=O)NCc4ccc(C)cc4)cc32)cc1` is inactive: 75%; for `COC(=O)c1ccc(NC(=O)CC2C(=O)N(c3cccc(OC)c3)C(=O)N2Cc2cccc(OC)c2)cc1` (configuration not stated) it is inactive: 105%; for `O=C(CSc1oc(-c2ccco2)nc1S(=O)(=O)c1ccc(Cl)cc1)c1ccccc1` it is inactive: 125%.
The figure for `CCN(CCCNC(=O)c1nn(-c2ccc(OC)cc2)c(=O)c2c1c1ccccc1n2C)c1cccc(C)c1` is inactive: 82%; for `COc1ccc(-c2cccc(NS(=O)(=O)c3cc(C)c(Cl)cc3C)c2)nn1` it is inactive: 102%.
The figure for `CCCCC12CN3CC(C)(CN(C1)C3c1c(C)[nH]c(=O)[nH]c1=O)C2=O` (configuration not stated) is inactive: 76%; for `CCOc1ccc(CCNC(=O)c2cc3c(-c4cccc(OC)c4)nn(C)c3s2)cc1OCC` it is inactive: 66%.
Consider `CCOc1ccc(NC(=O)CN2C(=O)C(c3ccccc3)=NC23CCCCCC3)cc1`, for which the survival is inactive: 90%.
On to `Cc1cc(NC(=O)CN(C)S(=O)(=O)c2ccc3c(c2)CCC(=O)N3)ccc1Br`, for which the survival is inactive: 73%.
Turning to `Cc1cccc(Cn2c(C)c(C)c3cc(C(=O)NCc4ccc(C)o4)ccc32)c1`, the survival was inactive: 86%.
Take `Cc1cccc(C(CC(=O)NCC2(c3ccccc3)CCCC2)c2ccccc2)c1O` (configuration not stated): the survival is active: 38%.
`CCC(C(=O)NCCc1ccc(Cl)cc1)n1nc(C)c2c(C)n(-c3ccccc3)nc2c1=O` (configuration not stated): the survival was inactive: 115%.
In the case of `O=C(Sc1cccc2cccnc12)N1CCOCC1`, the survival was inactive: 70%.
The figure for `Cc1ccc(S(=O)(=O)c2nnn3c2nc(Nc2ccc(C(C)C)cc2)c2sccc23)cc1C` is inactive: 32%; for `CCOc1ccc(-n2c(SCc3nc(-c4ccccc4C)no3)nnc2-c2ccccc2)cc1` it is inactive: 77%; for `CCC(=O)Nc1ccc2c(c1)N(C(C)=O)c1ccccc1CC2` it is inactive: 75%.
The figure for `CC(C)Cc1nn2c(=O)cc(COC(=O)c3ccccc3NC(=O)c3ccccc3)nc2s1` is inactive: 117%.
The figure for `CC(=O)Nc1ccc(NC(=O)CN2C(=O)CN(C)C(=O)c3ccccc32)cc1` is inactive: 86%; for `Cc1[nH]nc(CSSCc2n[nH]c(C)c2C(=O)NN)c1C(=O)NN` it is inactive: 95%.
For `COCCCn1c(=N)c(C(=O)NC2CCCC2)cc2c(=O)n3ccccc3nc21`, the survival is inactive: 85%.
The figure for `Cc1ccc(-c2nc3c4cnn(-c5cc(Cl)ccc5Cl)c4ncn3n2)cc1` is inactive: 69%.
The figure for `Cc1ccc(CCNC(=O)CCSCc2ccc(Cl)cc2)cc1` is inactive: 82%.
`CN(C)c1ccc(CN(CC2CCCO2)C(=O)COc2ccc(Cl)cc2)cc1` (configuration not stated): the survival is inactive: 59%.
For `CCc1ccc(-n2c(C)nc3cc(C(=O)NCCc4ccccc4)ccc32)cc1`, the survival was inactive: 107%.
The figure for `COc1cccc(CN2C(=O)c3ccccc3C2C(=O)NCCc2ccc(OC)c(OC)c2)c1` (configuration not stated) is inactive: 83%.
The figure for `COc1ccccc1NC(=O)CSc1ncc2c(n1)-c1cc(Cl)ccc1N(C)S2(=O)=O` is inactive: 98%; for `CC(C)CC(=O)Nc1ccc(C(=O)OCc2cc(=O)n3nc(C4CCCCC4)sc3n2)cc1` it is inactive: 55%; for `Cc1nc(N2CCCC2)ncc1C(=O)Nc1ccccc1` it is inactive: 99%.
The figure for `Cc1cc(O)c(C(c2cccc(Cl)c2)N2CCN(c3ccccc3)CC2)c(=O)n1Cc1ccco1` (configuration not stated) is inactive: 99%; for `CC(=O)N1CCCc2cc(S(=O)(=O)N3CCCC(C(=O)NCc4ccc(Cl)cc4)C3)ccc21` (configuration not stated) it is inactive: 86%; for `CCCn1c(=O)c2sccc2n2c(CCCC(=O)NCCOC)nnc12` it is inactive: 86%.
Regarding `O=C(c1cccs1)N1CCN(C/C=C/c2ccccc2)CC1`, the survival was inactive: 91%.
The figure for `CN(C)c1ccc(CNc2nc(-c3ccco3)nn2C(=O)c2cccc([N+](=O)[O-])c2)cc1` is inactive: 66%.
For the compound `COC(=O)c1cc(Cl)c(NC(=O)/C=C/c2ccc(Cl)cc2Cl)cc1OC`, the survival was inactive: 50%.
The figure for `CCOC(=O)c1ccc(NC2=CC(c3ccc(Br)cc3)N(c3ccc(C(=O)OCC)cc3)C2=O)cc1` (configuration not stated) is inactive: 128%; for `Cc1cccc(Oc2nc3c(C)cccn3c(=O)c2/C=C(\C#N)c2nc3ccccc3s2)c1` it is inactive: 69%.
The figure for `COc1cccc(Cc2nc3ccccc3nc2SCC(=O)N2CCc3ccccc32)c1` is inactive: 93%; for `O=S(=O)(c1ccccc1)c1nc(-c2cccc(Cl)c2)oc1NCc1ccccc1` it is inactive: 83%; for `COCCNC(=O)CSc1nnc(-c2ccc(OC)c(OC)c2)c(-c2ccc(OC)c(OC)c2)n1` it is inactive: 87%.
The figure for `CCOc1ccc(N2CC(c3nc4ccccc4n3CCCOc3ccc(OC)cc3)CC2=O)cc1` (configuration not stated) is active: 44%.
As to `Cc1ccc2c(c1)c(=O)c1ccccc1n2CCCC(=O)Nc1ccc(F)cc1F`, the survival is active: 49%.
The figure for `O=C(NC1CC(=O)N(c2ccccc2)C1)C1CCCC1` (configuration not stated) is inactive: 128%; for `CC(Sc1ncc(S(=O)(=O)c2ccc(C(C)C)cc2)c(N)n1)C(=O)Nc1ccccc1` (configuration not stated) it is inactive: 60%.
For `COc1ccc(NC(=O)Cn2c(=O)n(-c3ccc(Cl)cc3)c(=O)c3c(C)c(C(=O)N(C)C)sc32)cc1Cl`, the survival is inactive: 69%.
The figure for `CCOC(=O)c1cc(-c2ccc(F)cc2)n(CCC(=O)Nc2ccccc2OC)c1C` is inactive: 101%.
Consider `Cc1ccc(CSc2nc(=O)c3c(C)cc(C)nc3n2C2CC2)cc1`, for which the survival was inactive: 116%.
The figure for `COc1ccccc1-c1c(C)nn2c(N3CCN(c4ccc(Cl)cc4)CC3)cc(C)nc12` is inactive: 83%; for `CCCCOc1ccc(S(=O)(=O)Nc2cccc(-c3ccc(N4CCOCC4)nn3)c2)cc1` it is inactive: 83%.
With `CC(Sc1nc(-c2ccccc2)c(C#N)c(=O)[nH]1)C(=O)Nc1ccc(F)cc1` (configuration not stated), the survival was inactive: 70%.
The figure for `CCOC(=O)c1ccc(Nc2nc(C)cc(C)n2)cc1` is inactive: 85%; for `COc1ccc(N(CC(=O)N2CCN(c3cc(C)ccc3C)CC2)S(=O)(=O)c2c(C)noc2C)cc1` it is inactive: 70%; for `CCN(CC)C(=O)Cn1c(C)c(C#N)c2ccccc21` it is inactive: 96%.
For the compound `COc1ccc(-c2nc(CCNC(=O)c3cc(OC)c(OC)c(OC)c3)cs2)cc1`, the survival was inactive: 124%.
The figure for `COc1ccc(CNC(=O)Cc2c(C)c3c(cc(C)c4c(C)coc43)oc2=O)cc1` is inactive: 90%; for `CCCN1CCN(CC2=C(C(=O)OCC)C(c3ccc(Cl)cc3)NC(=O)N2)CC1` (configuration not stated) it is inactive: 93%.
The figure for `CC(C)c1ccc(C2c3c(-c4ccccc4O)n[nH]c3C(=O)N2CCc2ccccc2)cc1` (configuration not stated) is inactive: 50%; for `Cc1ccc(-n2ncc3c(NNC(=O)c4ccccc4C)ncnc32)cc1` it is inactive: 98%; for `COc1ccc(-c2c(C)nn3c(N4CCC(C(=O)NCCC(C)C)CC4)cc(C)nc23)cc1OC` it is inactive: 94%.
The figure for `CC(C)CCn1c(SCc2ccc(F)cc2Cl)nc2ccsc2c1=O` is inactive: 89%; for `CC1=C(C(=O)Nc2ccccc2)C(c2ccc(C(=O)O)cc2)n2nc(SCC(=O)c3ccc(C)cc3)nc2N1` (configuration not stated) it is inactive: 82%.
With `CCN(CC)CCn1c(=N)n(CC(O)COc2ccccc2C)c2ccccc21` (configuration not stated), the survival is inactive: 80%.
For `Cc1ccc(Cn2c(=O)c3c(nc4n3CCN4c3cc(C)cc(C)c3)n(C)c2=O)cc1`, the survival is inactive: 73%.
The figure for `C=CCn1c(C(C)NC(=O)c2ccccc2Cl)n[nH]c1=S` (configuration not stated) is inactive: 76%.
Regarding `CCc1ccc(-c2[nH]c3c(c2-c2c(-n4cccc4)n(C)c(=O)n(C)c2=O)c(=O)n(C)c(=O)n3C)cc1`, the survival is inactive: 105%.
As to `COC(=O)C1CCN(S(C)(=O)=O)CC1`, the survival was inactive: 81%.
The figure for `COc1cccc(NC(=O)Cn2c(=O)n(CCCC(=O)NCc3ccc4c(c3)OCO4)c(=O)c3ccccc32)c1` is inactive: 115%.
The figure for `O=S(=O)(Cc1ccccc1)N1CCC(c2nc(-c3cccs3)no2)CC1` is inactive: 75%.
